# Experimental data: paper PMC9221696
# Amino acid sequences for entries named in this document (tags omitted). Residues count along the entry.
# UniProt Q13158, residues 97-181: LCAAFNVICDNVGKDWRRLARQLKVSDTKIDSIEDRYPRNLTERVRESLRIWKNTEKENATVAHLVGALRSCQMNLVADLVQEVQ
# No constants are given. Whether binding was seen depends on the method and setting. Binding seen in cells or lysates may run through a third protein. Some results given as binding are weak or reduced against the parent protein; the word gives no strength. For some assays here: Sequences can lack the tags named with a protein.
# B1: wild-type Fas receptor (Fas/CD95) tagged with mCerulean3 or mVenus, P25445 26-335 (receptor)
# chain: QVTDINSKGLELRKTVTTVETQNLEGLHHDGQFCHKPCPPGERKARDCTVNGDEPDCVPCQEGKEYTDKAHFSSKCRRCRLCDEGHGLEVEINCTRTQNTKCRCKPNFFCNSTVCEHCDPCTKCEHGIIKECTLTSNTKCKEEGSRSNLGWLCLLLLPIPLIVWVKRKEVQKTCRKHRKENQGSHESPTLNPETVAINLSDVDLSKYITTIAGVMTLSQVKGFVRKNGVNEAKIDEIKNDNVQDTAEQKVQLLRNWHQLHGKKEAYDTLIKDLKKANLCTLAEKIQTIILKDITSDSENSNFRNEIQSLV
# Legend:
# [1] = target: ALPS-associated Fas mutant Fas-A257D tagged with mCerulean3 or mVenus (human) (UniProt P25445); assay: FRET or BRET; flow-cytometric FRET in live Jurkat cells co-transfected with homotypic pairs of Fas receptors, one tagged with mCerulean3 and one with mVenus; 24 h after transfection cells were treated with FasL-LZ and read at time points from 5 min; fold change in FRET over untreated cells; RapoC2 (Fas-deficient) cells; for wild-type Fas also wild-type, I2.1 (FADD-deficient) and I9.2 (caspase-8-deficient) Jurkat cells
# [2] = target: Fas-C199V palmitoylation mutant tagged with mCerulean3 or mVenus (human) (UniProt P25445); assay: as above
# [3] = target: ALPS-associated Fas mutant Fas-A257D tagged with mCerulean3 or mVenus (human) (UniProt P25445); assay: FRET or BRET; flow-cytometric FRET in live RapoC2 (Fas-deficient) Jurkat cells co-transfected with Cerulean3-tagged FADD DD and wild-type or mutant Fas; cells were treated with FasL-LZ; change in FRET over untreated cells
# [4] = target: ALPS-associated Fas mutant Fas-E261K tagged with mCerulean3 or mVenus (human) (UniProt P25445); assay: as above
# [5] = target: Fas-C199V palmitoylation mutant tagged with mCerulean3 or mVenus (human) (UniProt P25445); assay: as above
# [6] = target: wild-type Fas receptor (Fas/CD95) tagged with mCerulean3 or mVenus (human) (UniProt P25445); assay: as above
# [7] = target: ALPS-associated Fas mutant Fas-E261K tagged with mCerulean3 or mVenus (human) (UniProt P25445); assay: FRET or BRET; flow-cytometric FRET in live Jurkat cells co-transfected with homotypic pairs of Fas receptors, one tagged with mCerulean3 and one with mVenus; 24 h after transfection cells were treated with FasL-LZ and read at time points from 5 min; fold change in FRET over untreated cells; RapoC2 (Fas-deficient) cells; for wild-type Fas also wild-type, I2.1 (FADD-deficient) and I9.2 (caspase-8-deficient) Jurkat cells
# [8] = target: T1, wild-type Fas receptor (Fas/CD95) tagged with mCerulean3 or mVenus (human), P25445; assay: FRET or BRET; flow-cytometric FRET in live Jurkat cells co-transfected with homotypic pairs of Fas receptors, one tagged with mCerulean3 and one with mVenus; 24 h after transfection cells were treated with FasL-LZ and read at time points from 5 min; fold change in FRET over untreated cells; RapoC2 (Fas-deficient) cells; for wild-type Fas also wild-type, I2.1 (FADD-deficient) and I9.2 (caspase-8-deficient) Jurkat …; settings: remark: other sources report otherwise
# T1 chain: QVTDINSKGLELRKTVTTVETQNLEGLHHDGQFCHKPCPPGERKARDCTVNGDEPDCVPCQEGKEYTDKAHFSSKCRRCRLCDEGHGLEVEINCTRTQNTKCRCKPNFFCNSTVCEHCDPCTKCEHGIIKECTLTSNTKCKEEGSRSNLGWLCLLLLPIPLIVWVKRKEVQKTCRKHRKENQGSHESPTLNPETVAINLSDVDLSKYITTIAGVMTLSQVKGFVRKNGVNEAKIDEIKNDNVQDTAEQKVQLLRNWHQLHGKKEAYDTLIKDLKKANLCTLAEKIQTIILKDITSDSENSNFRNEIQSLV
molecule,measurement,setting,value
ALPS-associated Fas mutant Fas-A257D tagged with mCerulean3 or mVenus (from UniProt P25445 26-335) (receptor),binding,[1],binds
Fas-C199V palmitoylation mutant tagged with mCerulean3 or mVenus (from UniProt P25445 26-335) (receptor),binding,[2],binds
Cerulean3-tagged FADD containing only the death domain (FADD DD) (from UniProt Q13158 97-181) (domain or fragment),binding,[3],no binding
same,binding,[4],no binding
same,binding,[5],binds
same,binding,[6],binds
ALPS-associated Fas mutant Fas-E261K tagged with mCerulean3 or mVenus (from UniProt P25445 26-335) (receptor),binding,[7],binds
B1,binding,[8],binds
